The record followed here is patent publication US11666630B2, “Polypeptides for managing viral infections” (priority 2016, dated 2023).

The experiment has as its system ZIKV (PRVABC59 strain).

Read-outs that look alike come from different tables or passages of the source. Peptide text beside a SMILES is read from it.

Regarding `CC[C@H](C)[C@H](NC(=O)[C@@H](NC(=O)CNC(=O)[C@H](CC(C)C)NC(=O)[C@H](Cc1ccccc1)NC(=O)[C@H](Cc1ccccc1)NC(=O)[C@H](CC(C)C)NC(=O)[C@H](CC(C)C)NC(=O)[C@H](CC(C)C)NC(=O)[C@H](CCSC)NC(=O)[C@@H](N)CO)[C@@H](C)O)C(=O)N[C@@H](CO)C(=O)N[C@@H](CC(C)C)C(=O)N[C@@H](CO)C(=O)N[C@@H](CC(C)C)C(=O)N[C@@H](CS)C(=O)N[C@@H](CCC(N)=O)C(=O)N[C@@H](CC(=O)O)C(=O)N[C@@H](CC(=O)O)C(=O)N[C@@H](CCC(N)=O)C(=O)N[C@@H](CCC(=O)O)C(=O)N[C@@H](CCCNC(=N)N)C(=O)N[C@@H](CS)C(=O)O` [Yodha peptide] (H-SMLLLFFLGTISLSLCQDDQERC-OH; N-terminus and C-terminus assumed), the “Viral titers (FFU) after exposure of ZIKV to peptide” value is on record as “significantly decreased”; the “neutralization of ZIKV by D- and L-form” value is given as “neutralized ZIKV with comparable efficiency”; the “time at which maximum activity occurs” value was “within the first five minutes”. Also, the “neutralization of ZIKV by D- and L-form” value (FIG. 6D) was “work against ZIKV”.
On to PMLLLFFLGTISLSLCQEERGA [Variant 21], for which the “virucidal activity against ZIKV of natural variants” value is on record as “exhibited activity against ZIKV”.
In the case of SMLLLFFLGTISLSLCEEERDA [Variant 25], the “virucidal activity against ZIKV of natural variants” value is “no virucidal effect”.
